Results reported in the RNAGym collection of RNA variant scans (doi:10.1073/pnas.2313332121).
This sample is rich in variants without activity.

B1: TPR 5TU (parent)
chain: GGAUCUUCUCGAUCUAACAAAAAAGACAAAUCUGCCACAAAGCUUGAGAGCAUCUUCGGAUGCAGAGGCGGCAGCCUUCGGUGGCGCGAUAGCGCCAACGUUCUCAACUAUGACACGCAAAACGCGUGCUCCGUUGAAUGGAGUUUAUCAUG

Variants of: B1
Test: polymerase ribozyme fitness, log enrichment relative to wild type (log ratio); higher = more active; in vitro selection for triplet polymerase activity
How it was run: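 One round of in vitro selection, in triplicate, was applied to PCR-built, transcribed mutant libraries of each subunit of a heterodimeric triplet polymerase ribozyme. The steps were annealing with a biotinylated primer, partner subunit and triplets, incubation frozen at −7 °C, gel excision of extended constructs, streptavidin-bead capture and RT-PCR. Fitness is the logarithm, base 2, of genotype enrichment over wild-type enrichment from inverse-variance-weighted replicate averages of Illumina-sequenced inputs and outputs, keeping genotypes with ≥10 input reads and ≥1 read per output.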

| Variant | polymerase ribozyme fitness (log ratio) |
| --- | --- |
| U61G U101C | -2.61 |
| G62A | -0.367 |
| G62A A64U C69U C76U G84A C105G C116G | ≤ -4.2 |
| G62A A91U U104G A142C | ≤ -4.2 |
| G62A A98U | -1.42 |
| G62A A121G | -0.384 |
| G62A C85A U151C | ≤ -4.2 |
| G62A C87G U90A C96U C99U U148G | ≤ -4.2 |
| G62A C93G U130C | -3.01 |
| G62A C96G G100C | ≤ -4.2 |
| G62A G68U U77C A115C A122U | ≤ -4.2 |
| G62A G74C U135G | ≤ -4.2 |
| G62A G81U C87G C93U U130C G140C U144G | ≤ -4.2 |
| G62A G83C A107U | ≤ -4.2 |
| G62A G84A C87U C131G | ≤ -4.2 |
| G62A G84A C149G | ≤ -4.2 |
| G62C | -1.07 |
| G62C A64C | ≤ -4.2 |
| G62C A106U C125U | -3.86 |
| G62C A137U G143U U148G | ≤ -4.2 |
| G62C C63U C79A C85U A98U C99U C131A U135C U144A | ≤ -4.2 |
| G62C C85A C99G U151G | ≤ -4.2 |
| G62C C123A | -1.69 |
| G62C G71U G84U A150U G152C | ≤ -4.2 |

| Variant | polymerase ribozyme fitness (log ratio) |
| --- | --- |
| G62U | -0.546 |
| G62U C95U U134G U135G | ≤ -4.2 |
| G62U C96U | -1.14 |
| G62U C132A | ≤ -4.2 |
| G62U G80C C87U A89U G126U | ≤ -4.2 |
| G62U U77A G86U C99G | ≤ -4.2 |
| C63A | 0.15 |
| C63A A107C U111C A122G | ≤ -4.2 |
| C63A A120U G124C | -2.49 |
| C63A A147C | 0.331 |
| C63A C75U G92C C129U C132G | ≤ -4.2 |
| C63A G92C | -1.03 |
| C63A G117U A119C | 0.257 |
| C63A U78G C93U C103U C105U A106C C118U | ≤ -4.2 |
| C63G A64G G65A G92U C108G C116G | ≤ -4.2 |
| C63G A73G | -0.51 |
| C63G A91G U102G U144A | ≤ -4.2 |
| C63G C69G | -1.75 |
| C63G G65A G71A C87A C118U U145C | ≤ -4.2 |
| C63G G68C | ≤ -4.2 |
| C63G G83A A98C U104A | -0.841 |
| C63G G92U U102C A120G | -1.8 |
| C63U | -0.0732 |
| C63U A98G G126U C129G | ≤ -4.2 |

| Variant | polymerase ribozyme fitness (log ratio) |
| --- | --- |
| C63U A119U U144C | -0.319 |
| C63U C69A C85U A97C C118G G126C | -3.97 |
| C63U C69U A73U C93A A107C C123A A138U | ≤ -4.2 |
| C63U C75U U82A | 0.455 |
| C63U C79U C103U U111G C125A | ≤ -4.2 |
| C63U C85U C95A | -0.621 |
| C63U C99G A120G C125A G133A | ≤ -4.2 |
| C63U C125U G133U | -3.67 |
| C63U G67U G88A A89U C95A | ≤ -4.2 |
| C63U G68A C87G | ≤ -4.2 |
| C63U G83C U102A A142G A150C | ≤ -4.2 |
| C63U G88U | ≤ -4.2 |
| C63U G92A C108A G143A | ≤ -4.2 |
| C63U G126C | 0.627 |
| C63U U82G A98G C108G U144A | ≤ -4.2 |
| C63U U139G | 0.261 |
| A64C A73G | ≤ -4.2 |
| A64C A73G G81A C87G A106G G117U | ≤ -4.2 |
| A64C A73G G86C C96G A97U U102G U135G U145G | ≤ -4.2 |
| A64C A73U G84A U102G C116A | ≤ -4.2 |
| A64C A89U A150G | ≤ -4.2 |
| A64C A107C | ≤ -4.2 |
| A64C A115U A142U G143U | ≤ -4.2 |
| A64C A119G C149A | ≤ -4.2 |

| Variant | polymerase ribozyme fitness (log ratio) |
| --- | --- |
| A64C C76A G81A A113G | ≤ -4.2 |
| A64C C79U G112C | ≤ -4.2 |
| A64C C85G | ≤ -4.2 |
| A64C C85U | ≤ -4.2 |
| A64C C87A G133C U139A A142U U146C U151G | ≤ -4.2 |
| A64C G65A A107G G112U G124A G141U U148G | ≤ -4.2 |
| A64C G70C A73G G86A C99A | ≤ -4.2 |
| A64C G81C C116A | ≤ -4.2 |
| A64C G88U A150C | ≤ -4.2 |
| A64G A97U | ≤ -4.2 |
| A64G A150U | -3.42 |
| A64G C69U C99A G140C | ≤ -4.2 |
| A64G C79G A91U G124U G133U | ≤ -4.2 |
| A64G G65U A66U C99G A110C G136C G152U | ≤ -4.2 |
| A64G G80U C85U C93U G94U C103U | -4.18 |
| A64G G83A U135C | ≤ -4.2 |
| A64U C69U | ≤ -4.2 |
| A64U C95U C114U | ≤ -4.2 |
| A64U G68A C79A | ≤ -4.2 |
| A64U G86C G124A | ≤ -4.2 |
| G65A A73U U90G C96G A119C A122C | ≤ -4.2 |
| G65A A110U | ≤ -4.2 |
| G65A C75A G81U G94A C105U G140U | -3.7 |
| G65A C85U A97U | -2.46 |

| Variant | polymerase ribozyme fitness (log ratio) |
| --- | --- |
| G65A C87G U151C | ≤ -4.2 |
| G65A C93U | -1.96 |
| G65C A66C C93U C99G | ≤ -4.2 |
| G65C A66C G81A C85G A121G | -4.16 |
| G65C C85G | ≤ -4.2 |
| G65C C87A A97C U109A C149U | ≤ -4.2 |
| G65C G68U C93A C125A | ≤ -4.2 |
| G65C G71U | ≤ -4.2 |
| G65C G84A A89C G141C | ≤ -4.2 |
| G65C G86U U139A | ≤ -4.2 |
| G65C U77A G94U C108G G128U U146A | ≤ -4.2 |
| G65U A66C U77A A147C | ≤ -4.2 |
| G65U C75U C76G G83U | ≤ -4.2 |
| G65U G71C A73U A122U G126A A137C U146A | ≤ -4.2 |
| G65U G94A | ≤ -4.2 |
| A66C C76U C99U A107U U111A | ≤ -4.2 |
| A66C C87A U90C G100U | ≤ -4.2 |
| A66C C96U | ≤ -4.2 |
| A66C C105G | ≤ -4.2 |
| A66C C118U U130G | ≤ -4.2 |
| A66C C123U | ≤ -4.2 |
| A66C G70A G71A G100U G143A U148G | ≤ -4.2 |
| A66C G71A G94A A97U C116A U144A | ≤ -4.2 |
| A66C G84A C87U | ≤ -4.2 |

| Variant | polymerase ribozyme fitness (log ratio) |
| --- | --- |
| A66C G92A C105A C116A G126C G141A | ≤ -4.2 |
| A66C G92C | ≤ -4.2 |
| A66C U82C A91U C99A A115C | ≤ -4.2 |
| A66C U90G | ≤ -4.2 |
| A66G C76G U90G C93U C96G G117U | ≤ -4.2 |
| A66G C79G U102G A138U | ≤ -4.2 |
| A66G C85G A119C A122U | ≤ -4.2 |
| A66G C85G U101G C114U A120C | ≤ -4.2 |
| A66G C93A C95A C96U C116U | ≤ -4.2 |
| A66G C95U A138C | ≤ -4.2 |
| A66G C96A A98G G136U | ≤ -4.2 |
| A66G C116U | ≤ -4.2 |
| A66G G67A | ≤ -4.2 |
| A66G G68U G71U G81A G92U A137G | ≤ -4.2 |
| A66G G71U C76A C87U C96U A138C U144G | ≤ -4.2 |
| A66G G81A A89U U144A | ≤ -4.2 |
| A66G G81U C87G C99U U104G U134A A142U | ≤ -4.2 |
| A66G G100C A107C C114U A122C G133C | ≤ -4.2 |
| A66G U78G C114U U146G | ≤ -4.2 |
| A66U A98U U101A | ≤ -4.2 |
| A66U C69G U78G G81U C85U | ≤ -4.2 |
| A66U C79G G88C U134G | ≤ -4.2 |
| A66U C96A G100U A107U | ≤ -4.2 |
| A66U C96A U111A A122G A138C | ≤ -4.2 |

| Variant | polymerase ribozyme fitness (log ratio) |
| --- | --- |
| A66U G68A C72G G92U | ≤ -4.2 |
| A66U G68C C105A | ≤ -4.2 |
| A66U U77C C85U | ≤ -4.2 |
| A66U U90A G124A | ≤ -4.2 |
| G67A A98U G133U G136U | ≤ -4.2 |
| G67A C85A A122G | ≤ -4.2 |
| G67A C93G A98G U145A | ≤ -4.2 |
| G67A G68C | ≤ -4.2 |
| G67A G70C A89U U90G A97C C125U | ≤ -4.2 |
| G67A G74A | ≤ -4.2 |
| G67A G86A C114U U145G | ≤ -4.2 |
| G67A G88U | ≤ -4.2 |
| G67A G94C C95U | ≤ -4.2 |
| G67A U78C C96U G133U | ≤ -4.2 |
| G67A U139C G140A | ≤ -4.2 |
| G67C A73G C87A A97C G143A | ≤ -4.2 |
| G67C C69G A91U | ≤ -4.2 |
| G67C C85U G136A G140U | ≤ -4.2 |
| G67C C87U | ≤ -4.2 |
| G67C G71C G86A A107U A121U U144G | ≤ -4.2 |
| G67C G86C C96A G112U A113U G126U | ≤ -4.2 |
| G67C U77C G86U C129U A147U | ≤ -4.2 |
| G67U A73G U90A A97C U111G | ≤ -4.2 |
